# Results published in the supplement of paper PMC3334620.
# The full ranking holds about 33,000 sequences; the median of “E-score (-0.5 to 0.5)” is about -0.041, and the highest 2% start at about 0.37. The list shows a part of the results.
# Molecular target: T1, Ecm22 (UniProt Q05958)
# T1 sequence: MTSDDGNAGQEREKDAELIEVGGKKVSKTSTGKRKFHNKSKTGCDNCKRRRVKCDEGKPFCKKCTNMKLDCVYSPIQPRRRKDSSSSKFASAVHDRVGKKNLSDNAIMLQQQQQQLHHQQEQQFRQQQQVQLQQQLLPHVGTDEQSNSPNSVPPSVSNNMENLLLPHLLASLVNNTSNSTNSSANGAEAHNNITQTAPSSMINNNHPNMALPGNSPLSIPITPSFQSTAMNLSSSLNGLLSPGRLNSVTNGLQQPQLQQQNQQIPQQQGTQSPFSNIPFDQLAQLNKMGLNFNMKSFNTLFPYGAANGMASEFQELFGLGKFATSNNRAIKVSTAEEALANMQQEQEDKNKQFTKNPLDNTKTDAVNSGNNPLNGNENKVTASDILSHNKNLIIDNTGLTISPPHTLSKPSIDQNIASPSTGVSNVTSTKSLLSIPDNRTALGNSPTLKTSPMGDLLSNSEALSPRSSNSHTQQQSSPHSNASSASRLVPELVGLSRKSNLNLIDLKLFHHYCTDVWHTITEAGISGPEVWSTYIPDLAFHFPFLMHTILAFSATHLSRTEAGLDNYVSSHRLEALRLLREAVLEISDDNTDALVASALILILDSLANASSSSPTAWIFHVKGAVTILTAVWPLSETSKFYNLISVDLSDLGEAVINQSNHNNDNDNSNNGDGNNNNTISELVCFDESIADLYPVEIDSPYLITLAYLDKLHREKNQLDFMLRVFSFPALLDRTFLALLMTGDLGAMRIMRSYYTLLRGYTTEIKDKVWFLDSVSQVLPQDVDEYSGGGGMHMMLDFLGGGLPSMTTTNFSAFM
# Assay: PBM E-score (8-mer binding enrichment) (E-score (-0.5 to 0.5)); higher = stronger / more preferred TF binding; most listed sequences are background and not binding sites
# Settings: protein concentration: 200 nM; construct: GST-full length
# In short: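 Universal all-10-mer Agilent arrays, fresh or stripped once, were converted to double-stranded form by primer extension. GST-tagged yeast transcription factors from PURExpress in vitro transcription/translation, full-length or DNA-binding domain only, were applied at about 100-200 nM and detected with fluorescent anti-GST. After masliner normalisation, the Universal PBM Analysis Suite scored each ungapped eight-base word together with its reverse complement by E-score.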
row,Sequence,PBM E-score
1,GTACGTCA,0.178
2,AGCGTGAT,0.0673
3,CCTTTCAC,0.00297
4,ATTGGCCG,-0.204
5,GCGTTACA,-0.00306
6,ATCTGTGG,-0.273
7,GCAGCAGA,-0.0242
8,GTTTTCTA,0.0995
9,ATAATCCG,0.0655
10,AGTACTTC,0.0665
11,GCCCTGTA,-0.13
12,GAAAAAGA,0.019
13,GCAAAAAA,0.00736
14,ATTCCGGA,-0.051
15,TATAATGA,0.211
16,CAGGAATC,-0.0546
17,CGCACCAG,0.216
18,ATTAAGTG,0.05
19,GGTTCAAA,-0.0138
20,AGAACCAG,-0.11
21,CGTATCCC,0.32
22,GCGCGGGA,0.0953
23,GCGCCACC,-0.161
24,ATTTCATC,-0.179

row,Sequence,PBM E-score
1,GCCCATCC,-0.00151
2,AATCGGCT,0.0173
3,AGTATTCG,0.193
4,CAGGGCAG,-0.104
5,CTTATTAA,0.0405
6,CAAAGTTC,0.0176
7,CGGCGGCC,0.0156
8,TACTAACA,-0.0338
9,CATTGTGC,-0.197
10,CGTGCGGA,-0.117
11,CAGGAGAA,-0.193
12,AATCCGTG,0.0228
13,CACAGATG,-0.262
14,GGTACACA,-0.126
15,CTAGGTTC,-0.0955
16,GAACCGGC,-0.0167
17,CCTTATCA,-0.119
18,CCTGTGAG,-0.207
19,ACACCGCG,0.148
20,ACATTCTC,0.022
21,ACCCAGAC,0.0385
22,TCTTCCAA,-0.177
23,TAGCCACA,-0.0542
24,GACGAGGC,0.163

row,Sequence,PBM E-score
1,AACACCTT,0.0319
2,AGTAGACT,-0.168
3,ATAGGTTA,0.00491
4,GAATACTA,0.141
5,GACGTTCC,0.141
6,CGGTCCTA,0.0351
7,TGGGGAAA,-0.112
8,ACATTGCT,-0.145
9,AATTCTAA,0.0281
10,CTTGTTGA,0.0392
11,AAACATCG,-0.0242
12,CATAAAAA,-0.00742
13,CCTAAATC,0.00658
14,GGATTCAA,-0.135
15,CAGCATAA,-0.0633
16,GCGAGGGA,0.177
17,ACATTTCC,0.0206
18,CCAAATCC,-0.35
19,ACATGTTG,-0.0256
20,GATTCAGC,0.0384
21,GCCTAGAA,-0.158
22,CAATAATG,-0.0401
23,GAAGACAA,0.131
24,TGAAGAAA,-0.127

row,Sequence,PBM E-score
1,TCCTATAA,-0.174
2,CCACATCC,-0.0751
3,CAGACTGG,-0.242
4,CTATCCGA,0.223
5,GGTTGTAC,0.0985
6,CAAAAATA,0.0647
7,ATGAACGC,0.118
8,GTCGAAAC,-0.0139
9,ATAGCGTC,-0.0303
10,GCCACGCC,-0.205
11,CACTTCGA,0.122
12,CTACAGGC,-0.354
13,TATGGACA,-0.0636
14,CCATGAAC,-0.0999
15,AGAACGGC,0.203
16,ACGTTCGC,0.157
17,ACTGGCTC,-0.201
18,AATCAACG,0.115
19,CAGGTGCG,0.0796
20,AGGTCCCC,-0.33
21,AGTCGTGC,-0.0872
22,AGTTGCAC,-0.042
